Data from the supplement of paper PMC10126150.
Sequences with one replicate were seen in a single cluster, so their values are uncertain.

test system: ATP; assay: switch fluorescence ratio, 500 uM ATP over buffer (Cy3 cluster intensity, sum of 5 cycles each) (fold (ratio)); higher = stronger signal-on switching upon ATP binding; sequences stand for … in TCGTCGGCAGCGTCAGATGTGTATAAGAGACAGTTTTTTTTTTTTTTTTTTTTTTTTT…TC; conditions: aptamer strand: ATP DNA aptamer (quencher-CACCTGGGGGAGTATTGCGGAGGAAGG + anchor), 100 nM annealed; ATP concentration: 500 uM; one replicate
Procedure, shortened: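 Values give the fluorescence ratio for each switch-domain sequence, averaged from per-cluster ratios of summed target-cycle to summed buffer-cycle Cy3 intensity. The Cy3-labelled switching-strand clusters sat on a modified Illumina MiSeq flow-cell, were annealed to 100 nM quencher-labelled ATP aptamer, and were imaged in selection buffer, then after 15 min with 500 uM ATP at 22 °C. Five cycles ran with NaOH stripping and re-annealing between them, and clusters outside 100-1000 RFU were excluded.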
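Note: ATP exposure 15 min at 22 °C before imaging.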

| Sequence | switch fluorescence ratio |
| --- | --- |
| TGCAGGGTCC | 0.96 |
| TGCAGGTAAA | 1.07 |
| TGCAGTCTC | 1.01 |
| TGCATAACGC | 1.03 |
| TGCATACGGG | 1.08 |
| TGCATATAGT | 1.07 |
| TGCATCAGAT | 1.01 |
| TGCATGGGTC | 0.983 |
| TGCATGTATC | 1.06 |
| TGCATTAAGA | 1.02 |
| TGCATTCGGA | 0.997 |
| TGCATTGGCG | 0.982 |
| TGCATTGGGT | 1.02 |
| TGCATTTTCA | 1.01 |
| TGCCAAACTT | 1.02 |
| TGCCAAGTAA | 1.03 |
| TGCCACTCGG | 0.998 |
| TGCCAGAACC | 1.04 |
| TGCCAGCAAA | 0.997 |
| TGCCAGTTTT | 1 |
| TGCCATATTC | 1.02 |
| TGCCCACAGA | 1.07 |
| TGCCCCCTGG | 0.995 |
| TGCCCCGTC | 0.99 |
| TGCCCGACGA | 1.16 |
| TGCCGAAAGA | 1.01 |

| Sequence | switch fluorescence ratio |
| --- | --- |
| TGCCGATGTG | 1.03 |
| TGCCGCTGAA | 1.09 |
| TGCCGGCGAC | 0.995 |
| TGCCTGATCA | 0.965 |
| TGCCTTACAG | 1.02 |
| TGCCTTGTCC | 0.993 |
| TGCCTTTATT | 1 |
| TGCCTTTTGT | 0.985 |
| TGCGACAATG | 0.947 |
| TGCGACTCGC | 0.986 |
| TGCGAGTCGC | 0.991 |
| TGCGAGTGGA | 1.03 |
| TGCGATACTT | 2.44 |
| TGCGCACTCT | 1.05 |
| TGCGCATCCG | 1.01 |
| TGCGCCGATT | 1.04 |
| TGCGCGACCC | 1.41 |
| TGCGCGATCC | 3.34 |
| TGCGCGGAG | 1.06 |
| TGCGCGGGGC | 1.1 |
| TGCGCTCAT | 1.02 |
| TGCGCTTCGT | 0.994 |
| TGCGGAAACT | 1.01 |
| TGCGGAGCGC | 1.08 |
| TGCGGCATCA | 1.03 |
| TGCGGCGGTT | 1.01 |

| Sequence | switch fluorescence ratio |
| --- | --- |
| TGCGGGACAG | 1.03 |
| TGCGGGCGGA | 0.97 |
| TGCGGGGCGC | 1.06 |
| TGCGGGTATC | 0.998 |
| TGCGGTACAC | 1.01 |
| TGCGTACAAG | 0.977 |
| TGCGTATCTA | 1.01 |
| TGCGTCATGA | 0.958 |
| TGCGTCCATG | 1.03 |
| TGCGTGCGCG | 1.08 |
| TGCGTTTCGG | 1.02 |
| TGCTAATTC | 2 |
| TGCTAATTGG | 1.01 |
| TGCTACCTCT | 1.02 |
| TGCTACGTGA | 2.15 |
| TGCTACTTGG | 1.03 |
| TGCTAGCGGT | 1.03 |
| TGCTAGGCT | 1.06 |
| TGCTAGGTG | 1.66 |
| TGCTATGTCC | 1.09 |
| TGCTATTGGC | 1.02 |
| TGCTCAAAGG | 0.981 |
| TGCTCCAATA | 1.74 |
| TGCTCCTATC | 1.15 |
| TGCTCGCTGA | 1.07 |
| TGCTCTGAAG | 1.01 |

| Sequence | switch fluorescence ratio |
| --- | --- |
| TGCTGCAG | 1.04 |
| TGCTGCGTCA | 1 |
| TGCTGGTATT | 0.987 |
| TGCTGTAACA | 0.968 |
| TGCTGTATTT | 0.969 |
| TGCTGTGATA | 0.988 |
| TGCTTCAGA | 0.981 |
| TGCTTCCGG | 1.19 |
| TGCTTCGACA | 0.98 |
| TGCTTGACA | 0.996 |
| TGCTTGTCTG | 0.997 |
| TGCTTGTTGC | 1.01 |
| TGCTTTGTTA | 1.03 |
| TGCTTTTTGA | 1.02 |
| TGGAACTTT | 0.96 |
| TGGAAGATTA | 0.99 |
| TGGAAGGCGT | 1.01 |
| TGGAAGTAG | 0.979 |
| TGGAAGTTCG | 0.996 |
| TGGAATAAGA | 0.999 |
| TGGAATAGTC | 1.05 |
| TGGAATGACT | 1.01 |
| TGGACCCGTT | 1 |
